Columns and labels:
[1] = target: CD47 antigen expressed on CHO-K1 cells (UniProt Q08722); assay: flow cytometry
[2] = target: T1, TIGIT antigen expressed on CHO-K1 cells (UniProt Q495A1 22-244); assay: flow cytometry
T1 chain: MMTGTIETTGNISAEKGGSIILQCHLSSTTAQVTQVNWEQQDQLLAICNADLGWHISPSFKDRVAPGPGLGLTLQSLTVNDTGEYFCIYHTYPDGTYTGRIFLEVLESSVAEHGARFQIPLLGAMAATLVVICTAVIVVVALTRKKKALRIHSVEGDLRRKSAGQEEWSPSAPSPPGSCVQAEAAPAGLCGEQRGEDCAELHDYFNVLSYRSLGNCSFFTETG

UniProt Q08722, sequence (Q08722 19-323): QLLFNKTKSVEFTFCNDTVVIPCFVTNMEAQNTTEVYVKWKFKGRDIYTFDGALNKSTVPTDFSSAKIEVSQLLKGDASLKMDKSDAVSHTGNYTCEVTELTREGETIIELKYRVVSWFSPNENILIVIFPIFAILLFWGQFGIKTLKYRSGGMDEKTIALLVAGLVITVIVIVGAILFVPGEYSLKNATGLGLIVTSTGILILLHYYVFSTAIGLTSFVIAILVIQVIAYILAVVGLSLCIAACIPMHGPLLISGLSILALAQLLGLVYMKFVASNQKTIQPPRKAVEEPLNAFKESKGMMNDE

B1: sdAb-TIGIT-IgG4PE (Fc fusion)
chain: EVQLVESGGGLVQPGGSLRLSCAASGYKYGVYSMGWFRQAPGKGLEGVSAICSGGRTTYSDSVKGRFTISRDNSNQILYLQMNSLRAEDTAVYYCAARPLWTGDCDLSSSWYKTWGQGTLVTVSS[human IgG4 Fc with changes not listed]
With B1 the EC50 [1] was ~0.0695 nM and the EC50 [2] was 0.46 nM.
